Assay results published in publication PMC4336329 (PLoS ONE, 2015).
The whole screen tested about 310,000 compounds, of which about 14,000 (4.5%) showed an effect of 50% or more. Effects have a minus sign here. The list shows a part of the results.

The molecules below were run against human ether-à-go-go-related gene (hERG) potassium channel (human, UniProt Q12809) (assay: primary screen, population patch clamp on CHO cells stably expressing hERG).
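Also: peak tail current of the secondary pulse compared with the same well before compound.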

Sequence of human ether-à-go-go-related gene (hERG) potassium channel (Q12809 whole entry, looked up): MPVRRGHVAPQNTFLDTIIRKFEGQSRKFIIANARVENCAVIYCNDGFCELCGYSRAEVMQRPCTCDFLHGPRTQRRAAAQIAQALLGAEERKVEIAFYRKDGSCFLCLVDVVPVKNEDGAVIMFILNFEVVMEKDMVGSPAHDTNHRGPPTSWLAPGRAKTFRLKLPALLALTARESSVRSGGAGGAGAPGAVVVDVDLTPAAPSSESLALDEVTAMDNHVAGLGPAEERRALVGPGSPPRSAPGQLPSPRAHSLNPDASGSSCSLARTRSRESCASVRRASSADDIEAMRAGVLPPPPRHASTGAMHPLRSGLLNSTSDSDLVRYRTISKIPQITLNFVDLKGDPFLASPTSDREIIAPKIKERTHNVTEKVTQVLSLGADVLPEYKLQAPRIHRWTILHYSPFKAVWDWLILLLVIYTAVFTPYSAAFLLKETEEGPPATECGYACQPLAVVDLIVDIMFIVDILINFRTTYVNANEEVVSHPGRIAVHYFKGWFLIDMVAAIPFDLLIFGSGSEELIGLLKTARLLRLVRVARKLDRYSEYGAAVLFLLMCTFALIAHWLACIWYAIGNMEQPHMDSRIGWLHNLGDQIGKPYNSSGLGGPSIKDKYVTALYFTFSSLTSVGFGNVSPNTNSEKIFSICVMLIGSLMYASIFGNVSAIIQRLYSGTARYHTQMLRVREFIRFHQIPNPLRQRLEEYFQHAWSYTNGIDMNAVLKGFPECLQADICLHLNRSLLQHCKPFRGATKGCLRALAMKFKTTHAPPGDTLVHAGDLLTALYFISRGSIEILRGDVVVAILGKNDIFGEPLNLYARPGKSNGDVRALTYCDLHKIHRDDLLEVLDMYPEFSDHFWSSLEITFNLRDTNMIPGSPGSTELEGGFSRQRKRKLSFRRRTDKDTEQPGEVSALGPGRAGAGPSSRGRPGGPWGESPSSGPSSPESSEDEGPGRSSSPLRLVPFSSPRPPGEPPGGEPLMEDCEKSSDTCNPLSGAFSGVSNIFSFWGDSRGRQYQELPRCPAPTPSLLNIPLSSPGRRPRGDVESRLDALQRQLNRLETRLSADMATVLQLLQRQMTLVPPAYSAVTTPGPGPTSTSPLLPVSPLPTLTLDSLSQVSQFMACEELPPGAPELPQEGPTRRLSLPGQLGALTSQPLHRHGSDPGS

Row | Compound | hERG current change (%, negative = inhibition) at 10uM
1 | Cc1cc(O)c(C2(O)C(=O)Nc3ccccc32)cc1C (stereo not drawn) | 11.6%
2 | CCCC(=O)c1c[nH]c(C(=O)NCCc2ccccn2)c1 | 26.4%
3 | O=C1CCCCN1CCCC(=O)N1CCCC(Nc2ccc(F)cc2)C1 (stereo not drawn) | 16%
4 | O=C(NC(=S)Nc1cccc([N+](=O)[O-])c1)c1ccco1 | 9.47%
5 | C#CC(CC)(CC)NC(=O)NC1CCCCC1 | 15%
6 | CCCNC(=S)N1CCC(Cc2ccccc2)CC1 | 13.7%
7 | CNC(=O)CSc1nc2sccc2c(=O)n1-c1ccccc1 | 10.5%
8 | CCC(C)n1c(C)cc(C(N)=O)c1C (stereo not drawn) | 12.3%
9 | COc1ccc(Cl)cc1C(=O)Nc1cccnc1 | 17.4%
10 | Cc1cc(C)cc(OCC(=O)Nc2ccc3c4c(cccc24)CC3)c1 | 5.36%
11 | Cc1ccc(C(=O)NCCNS(=O)(=O)c2ccccc2)cc1 | -8.87%
12 | COc1ccccc1NC(=O)C(C)OC(=O)c1nc2nc(C)cc(C)n2n1 (stereo not drawn) | 8.89%
13 | CC1(C)Cc2c(C#N)c(OCC(=O)c3ccccc3)nc(-c3ccoc3)c2CO1 | -6.19%
14 | O=C(CNC(=O)c1ccccc1)NCC(=O)OCc1ccc(Cl)cc1 | -29.3%
15 | Cc1ccc(-c2nn(C)c(=O)c3ccccc23)cc1CNC(=O)c1ccccc1 | -34.5%
16 | Cc1c(Cl)cccc1NC(=O)CCC(=O)N/N=C/c1ccc[nH]1 | -2.38%
17 | COc1ccc(-c2csc(NCCc3nc4cc(Cl)c(N5CCCCC5)cc4n3CCOCCO)n2)cc1 | -10.4%
18 | CC(=O)c1csc(CS(=O)(=O)c2ccccn2)n1 | 5.4%
19 | O=C(NCc1ccco1)C1CC(c2ccc(Cl)cc2)=NO1 (stereo not drawn) | 1.47%
20 | COc1ccccc1NC(=O)NC1(C(=O)N2CCN(C)CC2)CCCCC1 | 20.4%

Row | Compound | hERG current change (%, negative = inhibition) at 10uM
21 | CCCc1cc(C(=O)NC2CCCC2)no1 | 0.175%
22 | Cc1cc(C(=O)OCC(=O)NC2CC2)c2ccccc2n1 | 11.1%
23 | COc1ccc(NS(=O)(=O)c2csc(C(N)=O)c2)cc1 | 14.2%
24 | O=S(=O)(C(=CNc1ccccc1)S(=O)(=O)c1ccccc1)c1ccccc1 | -4.38%
25 | CCOc1ccc(N2C(=O)c3cccnc3C2Nc2ccc(OC)cc2)cc1 (stereo not drawn) | -3.64%
26 | Cc1nc2ccccc2c(=O)n1/N=C1\C(=O)N(C)c2ccccc21 | 31.8%
27 | CN(C)C(=O)CSc1nc(SCC(=O)N(C)C)n(-c2ccccc2)n1 | 6.34%
28 | CC(C)OCCCn1c(=S)[nH]c2ncccc2c1=O | 11%
29 | CCOP(=O)(c1ccccc1)C1(O)CCCCC1 (stereo not drawn) | -1.86%
30 | Cn1c(COc2ccccc2)nnc1SCCN1CCOCC1 | 2.22%
31 | O=C(Nc1cccc(C(F)(F)F)c1)c1cc2c(=O)c3ccccc3oc2nc1C(F)(F)F | 1.61%
32 | COc1cc2c(cc1OC)C1C/C(=N\O)C(CC(C)C)CN1CC2 (stereo not drawn) | -9.75%
33 | O=C(Nc1ccc(-n2cc(Cl)cn2)cc1)c1ccncc1 | 14.2%
34 | CN(C)c1ccc(-c2ccccc2)nn1 | 22.3%
35 | C=CCN(C(=O)COc1ccccc1)c1nnc(-c2ccncc2)s1 | -27.5%
36 | CC(C)CC(C(=O)NC(C)(C)C)N(Cc1cccs1)C(=O)c1snc(C(N)=O)c1N (stereo not drawn) | -0.038%
37 | Cc1cccc(N2CCN(C(=O)c3ccc4c(c3)OCCO4)CC2)c1C | -3.89%
38 | Cl.O=C(OCCN1CCCCC1)c1c[nH]c2ccccc12 | -33.8%
39 | Cc1ccc(C(=O)NC(=O)CSc2nncn2C)cc1 | 6.16%
40 | Clc1ccc2[nH]c3c(c2c1)CCc1cn[nH]c1-3 | -0.801%

Row | Compound | hERG current change (%, negative = inhibition) at 10uM
41 | O=C(OCC(=O)N1CCOCC1)c1cccc(F)c1 | 28.8%
42 | CCOc1ccc(NC(=O)C2CC(=O)N(C)C(=Nc3ccc4c(c3)OCO4)S2)cc1 (stereo not drawn) | 14.9%
43 | CN1C(=O)NC(c2ccc(C(F)(F)F)cc2)C2=C1CC(C)(C)CC2=O (stereo not drawn) | -5.75%
44 | Cc1ncc(CN2CCC(N3CCC(C(=O)N4CCCC4)CC3)CC2)s1 | -18.1%
45 | CCn1c(O)c(N=NC(=O)Cn2ccc(C(F)(F)F)n2)c2ccccc21 | -40.9%
46 | COc1ccc(/C=N/NC(=O)c2ccc(COCC(F)(F)C(F)F)cc2)cc1 | -0.999%
47 | O=C(Nc1ccc(Br)cc1)Nn1cnnc1 | 14.2%
48 | O=C(O)c1ccccc1NC(=O)C1CCN(S(=O)(=O)c2cccc3nsnc23)CC1 | 8.08%
49 | c1ccc(Cc2nc3ccccc3o2)cc1 | 3.65%
50 | CC(C)CCNC(=O)C1CC(c2ccccc2C(F)(F)F)=NO1 (stereo not drawn) | -8.08%
51 | CCN(CC)C(=O)c1ccc(NS(=O)(=O)c2ccc3[nH]c(=O)[nH]c3c2)cc1 | 15.4%
52 | CSC(=NS(=O)(=O)c1ccccc1)SC | 15.5%
53 | CCn1c(C2CC(=O)N(c3cc(C)cc(C)c3)C2)nc2ccccc21 (stereo not drawn) | -2.71%
54 | CCOC(=O)C(C)(C)Sc1nc2c(cnn2-c2ccc(F)cc2)c(=O)[nH]1 | 12.7%
55 | Cc1cccc2sc(N3CCN(C(=O)C4COc5ccccc5O4)CC3)nc12 (stereo not drawn) | -31.3%
56 | COCCCNC(=O)C(CC(N)=O)NC(=O)OCc1ccccc1 (stereo not drawn) | 13.2%
57 | COc1ccc(CN2CCN(C(C)C(=O)N(C)Cc3cccc(F)c3)CC2)cc1OC.O=C(O)C(=O)O (stereo not drawn) | -61%
58 | COc1ccc(C(=S)N2CCOCC2)cc1OC(=O)c1cc([N+](=O)[O-])c(C)c([N+](=O)[O-])c1 | -2.94%
59 | COc1cc(C(=S)N2CCOCC2)cc(OC)c1OC | 6.11%
60 | Clc1cccc(N2CCNCC2)c1Cl | -3.75%
